Test results published in PMC12136788.
Some of the results follow.

T1: UNK ZnF1-6 (called full-length) (human, UniProt Q9C0B0 30-357)
T1 sequence: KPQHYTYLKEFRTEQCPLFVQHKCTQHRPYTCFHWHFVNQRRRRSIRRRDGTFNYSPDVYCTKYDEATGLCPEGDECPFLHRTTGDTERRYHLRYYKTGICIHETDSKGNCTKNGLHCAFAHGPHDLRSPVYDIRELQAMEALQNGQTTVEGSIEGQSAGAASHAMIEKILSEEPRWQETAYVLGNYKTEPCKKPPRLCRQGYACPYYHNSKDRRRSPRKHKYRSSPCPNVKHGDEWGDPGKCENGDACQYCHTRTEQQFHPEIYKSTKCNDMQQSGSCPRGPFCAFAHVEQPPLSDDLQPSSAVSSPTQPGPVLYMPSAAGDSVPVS

B1: chr17:8173470:8173636:-|3pUTR|ENSG00000179029|msi1|FALSE|unique (ssRNA)
RNA: GGGAGUUCUACAGUCCGACGAUCUGUUUGUCUGUAUCGUCAGGUGGGAUAAUCCUUACCUGUUCCUCCUCCGGAGGGCAGAUUAGAACAUGAUGAUUGGAGAUGCAUGAAACGUGAUUAACGUCUCUGCGUAAUCAGGACUUGCAACAGAGGAUUGAGCAUCA
B2: chrX:129805617:129805718:-|3pUTR|ENSG00000188706|msi1|total|mutant (ssRNA)
RNA: GGGAGUUCUACAGUCCGACGAUCUCUUUUCCCAUCCGAUAUAUGUAAGCCGUUGCCGCCGAGAUAAUAAUUGACAUUUCUCGCCGACUACCCAGAAACUUUUUUAAUACCUGUGCCAUUCUCAAUAAGAAUUUAUGAGAUGCCCAACAGAGGAUUGAGCAUCA
B3: chr1:205620050:205620151:-|CDS|ENSG00000158711|unk|total|mutant (ssRNA)
RNA: GGGAGUUCUACAGUCCGACGAUCGCCAAUGGAACUUCCAGAGAAUUUGUCACUGGAGCCUAAAGACCAGGAUUCAGUCUUGCCCGAAAAGGACAAAGUAAAUAAUUCAUCAAGAUCCAAGAAACCCAAAGGGUCCGAACUGGCCAACAGAGGAUUGAGCAUCA
B4: chr20:32237940:32238012:+|3pUTR|ENSG00000101346|msi1_unk|total|mutant (ssRNA)
RNA: GGGAGUUCUACAGUCCGACGAUCUUUCAAAGAUACAAAUAUUUACACCGUUUUAAUCAUGUAAUAUAUACAAUUUAAUGUCCCCGUGUUUUACUUAACCGUGUAUCAUGUUUUCCCUGUUGGUAUGCCGCCUGGAUAAAUGCUCAACAGAGGAUUGAGCAUCA
B5: ENSG00000070961:be:win_2251|CDS|ENSG00000070961|bound_else_gene|NA|bound_elsewhere_windowed (ssRNA)
RNA: GGGAGUUCUACAGUCCGACGAUCGAGCAAGAGAGGAUAGACAAGAUUUGGCCAAAACUUCGAGUACUUGCAAGAUCAUCUCCUACUGAUAAGCAUACACUGGUUAAAGGUAUAAUUGACAGCACUGUCUCAGACCAACGCCAGCAACAGAGGAUUGAGCAUCA
B6: chr10:74118697:74119064:+|3pUTR|ENSG00000035403|msi1|FALSE|unique (ssRNA)
RNA: GGGAGUUCUACAGUCCGACGAUCGAAGAAAUCACAGAAUCAUAUGAUUCUGCUUUUACCAUGCCCCUGAGCAAUGUCUGUGCUAGGGAAACUUCCCGUCCCAUAUCCUGCCUCAGCCCGCCAAGGUAGCCAUCCCAUGAACACCAACAGAGGAUUGAGCAUCA
B7: chr3:127036428:127036535:+|3pUTR|ENSG00000114554|msi1|FALSE|unique (ssRNA)
RNA: GGGAGUUCUACAGUCCGACGAUCGCGUGUGGCUGGGGCGUGGCCACCACAGAGCACAUGGCUGUGUCUAGGCGCAAGCACUUUAGCAGUAUCUGUUUACAUGCGCAAGGAUCAAGCCGACUACCUGUGCUGUCUACUGGGACACAACAGAGGAUUGAGCAUCA
B8: chr1:26899991:26900442:-|CDS|ENSG00000198746|control|control|control (ssRNA)
RNA: GGGAGUUCUACAGUCCGACGAUCUACCUGGUAGUGAGCGGUAUCCCCUCCGUGUUGCGCUCGGCCCAUUUACGGAGCUAUUUUAGCCAGUUCCGAGAAGAGCGCGGCGGUGGCUUCCUCUGUUUCCACUACCGGCAUCGGCCUCAACAGAGGAUUGAGCAUCA
B9: chr5:115137525:115137627:-|CDS|ENSG00000152503|unk|FALSE|unique (ssRNA)
RNA: GGGAGUUCUACAGUCCGACGAUCUUUAGCAGAAGAGGCUAUUCUUUGUUUUAUCUUAGUGUAAUGGAGAUACUGUUUUUUCUUAGUGUAAUGGAGAGAGGGCUAAAGAAGAAGCAAUUACACAUUUUGAAAAGCUCUUUGAAGCAACAGAGGAUUGAGCAUCA
B10: chr2:86144366:86144519:-|CDS|ENSG00000132305|unk|FALSE|unique (ssRNA)
RNA: GGGAGUUCUACAGUCCGACGAUCAAACACAUUUAAAUUACUGUCAUAUGCUUCCUAUUGCAUUGAGCAUGGUGAUCUGGAGCUAGCAGCAAAGUUUGUCAAUCAGCUGAAGGGGGAAUCCAGACGAGUGGCACAGGACUGGCUCAACAGAGGAUUGAGCAUCA
B11: chr19:7961171:7961272:-|3pUTR|ENSG00000066044|msi1|FALSE|unique (ssRNA)
RNA: GGGAGUUCUACAGUCCGACGAUCGGCGGGAUUCCCGCUUCUGAAACUCCCCCUGGAGUCUCACUCCCACACAUGCCCAUAGCUAGCAUUCAACAGAGAACUCUGUCUUAAGCUUCAACUGUGAAAAUGAUGACGGGCUUGUAGCAACAGAGGAUUGAGCAUCA
B12: chr6:138432586:138432687:-|CDS|ENSG00000135540|unk|FALSE|unique (ssRNA)
RNA: GGGAGUUCUACAGUCCGACGAUCGGAGCCCUGGGAAUACAAAUCCUCAGGUAAUGGAAGGGCAUCCCCCCUGAAGCCGCAUUUAGCAACUCCUGGCUAUUCCACUCCCACAAGUAACAUGAGCAGCUGCAGUUUGGACCAAACCAACAGAGGAUUGAGCAUCA
B13: chr14:103559255:103559356:-|3pUTR|ENSG00000166170|msi1|FALSE|unique (ssRNA)
RNA: GGGAGUUCUACAGUCCGACGAUCGCUUAACGGGGUGGGGUUUUUUUGUUUGUUCAGACAGUCUGUUCUUUUGUAAACAUUUUUAGUUGGAAAAACAGCAUCUGCAUUUUCCCCAUCCUCUACGUUUUAGAGAGGAAUCUUGUUCAACAGAGGAUUGAGCAUCA
B14: chr17:5346795:5346911:+|CDS|ENSG00000029725|unk|total|mutant (ssRNA)
RNA: GGGAGUUCUACAGUCCGACGAUCAGAACUGAAUCAUUAUCUGGAAGCUGAGAAAUCUUGCCGGACUGAUCCCGAGAUGUAUGCCGCUGUUUUGAAUACUCAGAAAUCUGUUCUACAGGAAGAUGCUGAGAAACUGCGGAAAGACAACAGAGGAUUGAGCAUCA
B15: ENSG00000154556:stop:overlap|stop_codon|ENSG00000154556|stop_codon|NA|stop_codon (ssRNA)
RNA: GGGAGUUCUACAGUCCGACGAUCCUUCUUCCCCAUCAAGAGCAAAAGUUACUCAGGGCUCAACGGCAACCCCUCCAGUGAGUUAGAUUACUGUAGCACUUACAGACAGCACUUGGAUGUCCCUCGGGACUCACCAAGAGCCAUCAACAGAGGAUUGAGCAUCA
B16: chr11:62752106:62752207:-|CDS|ENSG00000185670|msi1|total|mutant (ssRNA)
RNA: GGGAGUUCUACAGUCCGACGAUCGGCUCACAAUGAGGACCUGGCCAAACGCAGCAAACCAGAUCCAGAAGUGGGACCCCUUCCCGGGGUGCAGCCUCUCCCUGGCUCCCCAACAGCAGACAGACAGAGCAGCAGUGGUGGAGGCAACAGAGGAUUGAGCAUCA
B17: ENSG00000164751:stop:overlap|stop_codon|ENSG00000164751|stop_codon|NA|stop_codon (ssRNA)
RNA: GGGAGUUCUACAGUCCGACGAUCAAGUACACAGUCUGCAGCCACUGAAAUCAGGAAUCGAGAUGUCAGAAGUAAAUGCUCUUUAGAAACUAAAAUUGCUUCCUUUGAGGAAAAAAAUGCACCGUGUUUAAAUUCUUAAUAUUACAACAGAGGAUUGAGCAUCA
B18: chr10:47502154:47503543:-|CDS|ENSG00000204172|control|control|control (ssRNA)
RNA: GGGAGUUCUACAGUCCGACGAUCGGAGCUGGAUGACUGGCCAGUUGAGCUCAGGAAGGUUAUGUCAUCUAUUGGCAAUGAGCUAGCCAACAGCAUCUGGGAAGGGAGCAGCCAGGGGCAGACAAAACCCUCAAUAAAGUCCACCAACAGAGGAUUGAGCAUCA
B19: chr12:52702891:52703434:-|CDS|ENSG00000189182|control|control|control (ssRNA)
RNA: GGGAGUUCUACAGUCCGACGAUCCUUUGGUCCUUAUUGUCCUCCUGGGGGCAUCCAAGAGGUGACCAUUAACCAGAGCCUCCUAGAGCCACUUCACCUGGAGGUGGACCCUGAAAUUCAGAGGAUCAAGACCCAGGAGCGGGACAACAGAGGAUUGAGCAUCA
B20: chr19:6380113:6380214:-|3pUTR|ENSG00000125651|msi1|FALSE|unique (ssRNA)
RNA: GGGAGUUCUACAGUCCGACGAUCACUUCAGGCUCUCAGUGACCCUUCGACAUCCUGCUUGCUCCCUGACUCCCAGGGCCCCGUAGUUAGCAAUUCUGGAAAAGUUAAGCCAUCUCCUCCUCUGGCCCUUCCUUCUGGAAUCUUCAACAGAGGAUUGAGCAUCA
B21: chr5:159158860:159158961:-|CDS|ENSG00000145860|msi1|total|mutant (ssRNA)
RNA: GGGAGUUCUACAGUCCGACGAUCCCAGGAGACCUGCCCUCUGUGCCACUGCCAUCUGAAAAACUCCUCCCAGCUUCCAGGAUCCGGAACUGAGCCAGUUCUACAGCCUCAUGCUGGAGCUGAGCAAAACGUCAUGUUUCAGGACAACAGAGGAUUGAGCAUCA
B22: chr12:89590234:89590335:-|3pUTR|ENSG00000070961|msi1|total|mutant (ssRNA)
RNA: GGGAGUUCUACAGUCCGACGAUCUUUGCCUACAAUUUACCUUGUUAAAUAUUGCCGAUAAAUUGCUAAUACUAACCGCCAAACCGAUAACACUAAUGCUUUGUUUAAAAAAACGAAAAAAACAAAACAAAACAAAAAAACAUGCAACAGAGGAUUGAGCAUCA

biological target: T1, UNK ZnF1-6 (called full-length); assay: nsRBNS (natural sequence RNA bind-n-seq); RBNS binding buffer (assumed for nsRBNS): 25 mM Tris pH 7.5, 150 mM KCl, 3 mM MgCl2, 0.01% Triton X-100, 500 ug/ml BSA, 20 U/ml SUPERase-In, 4 C; UNK is unkempt and MSI1 is Musashi-1; names of the RNAs are library labels; protein concentration not given here; high values mean tight binding

Binder | binding signal [enrichment R]
B1 | 0.884
B2 | 0.637
B3 | 0.832
B4 | 0.548
B5 | 0.35
B6 | 0.654
B7 | 0.842
B8 | 0.513
B9 | 1.27
B10 | 0.785
B11 | 0.357
B12 | 0.879
B13 | 1.28
B14 | 0.778
B15 | 0.824
B16 | 0.887
B17 | 0.77
B18 | 0.885
B19 | 0.636
B20 | 1.13
B21 | 0.64
B22 | 0.363
